B1: TPR 5TU (parent)
chain: GGAUCUUCUCGAUCUAACAAAAAAGACAAAUCUGCCACAAAGCUUGAGAGCAUCUUCGGAUGCAGAGGCGGCAGCCUUCGGUGGCGCGAUAGCGCCAACGUUCUCAACUAUGACACGCAAAACGCGUGCUCCGUUGAAUGGAGUUUAUCAUG

This sample is rich in variants without activity.

In this data set the parent is B1. Kind of data set: polymerase ribozyme fitness, log enrichment relative to wild type (log ratio); higher = more active; in vitro selection for triplet polymerase activity. Put shortly: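 Mutant libraries were PCR-built and transcribed for each subunit of a heterodimeric triplet polymerase ribozyme and selected for one round in triplicate at −7 °C, frozen, before gel excision of extended constructs and streptavidin-bead capture. Input and output libraries were Illumina-sequenced, keeping genotypes with ≥10 input reads and ≥1 read per output. Fitness is a logarithmic ratio of genotype to wild-type enrichment, in base 2, using inverse-variance-weighted replicate averages.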
With A16G A37U A60U G71C G84A C116A G124C U146G, the “polymerase ribozyme fitness (log ratio)” value is at most -4.2.
For the variant U15G A21C C38U A40G C57U C76G C99G G128A G140C, the “polymerase ribozyme fitness (log ratio)” value was at most -4.2.
Turning to A16G A20C U78A C87U, the “polymerase ribozyme fitness (log ratio)” value was at most -4.2.
Regarding A16C G25A C75U G83C A98C A115C C116G, the “polymerase ribozyme fitness (log ratio)” value was at most -4.2.
As for U15G A20U C54U C85G G94U U104C, the “polymerase ribozyme fitness (log ratio)” value was -2.12.
Turning to U15G G34U A107C A115U C118A U134C U135G A150G, the “polymerase ribozyme fitness (log ratio)” value was at most -4.2.
On to A16G A49C G58C G83C, for which the “polymerase ribozyme fitness (log ratio)” value is at most -4.2.
Turning to U15G G50A C87A C116A A121U, the “polymerase ribozyme fitness (log ratio)” value is at most -4.2.
The figure for U15G A47G U56A G68C G80A G88C C108U A119G A122C is at most -4.2.
The figure for A16C G62C is -2.47; for A16C C36A C76A A91G C105U A150G it is at most -4.2; for A16G C93G A113U it is at most -4.2.
With A16C C51G C87A C95U, the “polymerase ribozyme fitness (log ratio)” value was at most -4.2.
On to A16C C18U C38U A39C A49U G67A U134G, for which the “polymerase ribozyme fitness (log ratio)” value was at most -4.2.
Turning to A16C C35G G50A G58A G80U C95A C105U A113C U151A, the “polymerase ribozyme fitness (log ratio)” value is at most -4.2.
In the case of U15G A19C A39G G68U G70U U90A C93G A97U C123U G128U, the “polymerase ribozyme fitness (log ratio)” value is at most -4.2.
Regarding U15G G46C C93A C95U, the “polymerase ribozyme fitness (log ratio)” value is at most -4.2.
In the case of U15G G94C C96U U111A G152A, the “polymerase ribozyme fitness (log ratio)” value was at most -4.2.
U15G A40G C96U A97G G141A: the “polymerase ribozyme fitness (log ratio)” value is -3.18.
The figure for A16G C87U is -1.85; for A16G A41U C43U U61G A73G G86A it is at most -4.2; for A16G A23U A28G C35U U82A it is at most -4.2.
Turning to U15G A47G U111C, the “polymerase ribozyme fitness (log ratio)” value is at most -4.2.
For A16C G88A C116G, the “polymerase ribozyme fitness (log ratio)” value was -4.19.
For A16G C72U C87G, the “polymerase ribozyme fitness (log ratio)” value is at most -4.2.
A16G A26U G50C A66G C87G: the “polymerase ribozyme fitness (log ratio)” value is at most -4.2.
In the case of A16G A41G U53G A73U G88A C125U G133U, the “polymerase ribozyme fitness (log ratio)” value was at most -4.2.
For A16G A29U A40U G84A C129G U146C, the “polymerase ribozyme fitness (log ratio)” value was at most -4.2.
A16G G50A G65C C93U A115U U134A: the “polymerase ribozyme fitness (log ratio)” value was at most -4.2.
As to U15G G65A C76G U82C C85U G92A, the “polymerase ribozyme fitness (log ratio)” value was at most -4.2.
Regarding A16G C38G A49U U55A C85U U139A, the “polymerase ribozyme fitness (log ratio)” value was at most -4.2.
U15G A26U C54G A60C C85G U111A A142C U146A: the “polymerase ribozyme fitness (log ratio)” value was at most -4.2.
Take A16G C27G U44A C79G: the “polymerase ribozyme fitness (log ratio)” value was at most -4.2.
The figure for U15G A19G C54U G62A C95U C103A G124U is at most -4.2; for U15G A28G C35G A73U A142G it is at most -4.2.
On to A16C A60G U77A C93A, for which the “polymerase ribozyme fitness (log ratio)” value is at most -4.2.
The figure for A16G U53A U146G is -2.19; for A16C U44A it is at most -4.2; for A16C A52U C85G A122G G124C it is at most -4.2.
A16G A22U G94A: the “polymerase ribozyme fitness (log ratio)” value was -0.896.
Regarding U15G C27U U44G A52C C93U C114U A138U, the “polymerase ribozyme fitness (log ratio)” value was at most -4.2.
Turning to U15G A20U C85A G126A G133U, the “polymerase ribozyme fitness (log ratio)” value was at most -4.2.
A16C A29U C43U A47U C75G G80C G88U C96A G124U U139A G143A: the “polymerase ribozyme fitness (log ratio)” value was at most -4.2.
As for A16G C35U, the “polymerase ribozyme fitness (log ratio)” value was -1.36.
In the case of A16G U33G G81A C87G G100A, the “polymerase ribozyme fitness (log ratio)” value was at most -4.2.
In the case of U15G A47C A89C C93U U127A G136U, the “polymerase ribozyme fitness (log ratio)” value was at most -4.2.
As for A16C C54G G88A C95G, the “polymerase ribozyme fitness (log ratio)” value is at most -4.2.
With A16C A22C C27A C35A U55A C95G, the “polymerase ribozyme fitness (log ratio)” value is at most -4.2.
U15G G68A C85U U104A C105U: the “polymerase ribozyme fitness (log ratio)” value is at most -4.2.
The same measure for A16G G74A C79U C93A C103A: at most -4.2.
As for A16G G58U G68A C85U C87G G126A C132G, the “polymerase ribozyme fitness (log ratio)” value was at most -4.2.
As for A16C C51U G84U U135A, the “polymerase ribozyme fitness (log ratio)” value is -3.41.
As for A16G C43A U55A G80C G117U G133C, the “polymerase ribozyme fitness (log ratio)” value is at most -4.2.
With A16G G50C C54G U61A G83C C85U U104G G128U, the “polymerase ribozyme fitness (log ratio)” value is at most -4.2.
The figure for A16C C43U A49C G71C U104A C125U is at most -4.2; for U15G G42C C43U C51A G84U G140A it is at most -4.2.
The same measure for A16C C27G U31G C32U A40G C72G G100U U146C: at most -4.2; for A16C A91U G143A: at most -4.2.
In the case of A16C A24G U56C U77C G86A U104G U139A A142G, the “polymerase ribozyme fitness (log ratio)” value was at most -4.2.
The figure for U15G C57A C79A C85A C116G is at most -4.2.
The same measure for A16G G83U C87U C93G A142U: at most -4.2; for A16C C32A G46C G100U A142U: at most -4.2; for A16C U151A: at most -4.2.
With U15G A37C U53G G59C C76A A91G A97U U145A, the “polymerase ribozyme fitness (log ratio)” value is at most -4.2.
As to A16G A26U U31C U82A A106U C131A U139G G141C, the “polymerase ribozyme fitness (log ratio)” value is at most -4.2.
The figure for A16C G48A U61A U101G A137G U146G is at most -4.2; for A16C C32G G48U G136A it is at most -4.2; for A16G C18G C27U A66U G83U C108U C129A A138C U148G it is at most -4.2.
For the variant A16C U90C C95U U145A, the “polymerase ribozyme fitness (log ratio)” value was at most -4.2.
Turning to A16C C18U G34C C51A G58A C72U C76G C105U, the “polymerase ribozyme fitness (log ratio)” value is at most -4.2.
On to A16C A22U C69U C85G C103A, for which the “polymerase ribozyme fitness (log ratio)” value is at most -4.2.
Turning to U15G C72U C87A U134A A150C U151G, the “polymerase ribozyme fitness (log ratio)” value was at most -4.2.
The figure for A16G C51A U55A C72U G84C G88U C116A G133C A147U U151A is at most -4.2.
With A16G A23G A26C C51G G67C C96U C108U A110U, the “polymerase ribozyme fitness (log ratio)” value was at most -4.2.
The figure for U15G C85A A107C G141U is at most -4.2.
Consider A16C C85U A106U G126A, for which the “polymerase ribozyme fitness (log ratio)” value was -3.28.
Consider U15G A22C U148G, for which the “polymerase ribozyme fitness (log ratio)” value was at most -4.2.
The same measure for U15G G88A: -4.08; for A16G A24U G46U C85G A106C U109A C114U C118G A120G: at most -4.2; for A16G C116A: 0.283.
In the case of A16G C35U A66G C76A C79G G83U, the “polymerase ribozyme fitness (log ratio)” value was at most -4.2.
The figure for A16C U61A G67A C87U A107U is at most -4.2.
Take U15G A22U C36G G67A C116A U134A A142U U145C: the “polymerase ribozyme fitness (log ratio)” value is at most -4.2.
As for U15G A23C U44G U45G G46A G92C A138C, the “polymerase ribozyme fitness (log ratio)” value was at most -4.2.
